This is an account of results in ChEMBL document CHEMBL4888484, “Replenishing the malaria drug discovery pipeline: Screening and hit evaluation of the MMV Hit Generation Library 1 (HGL1) against asexual blood stage Plasmodium falciparum ,using a nano luciferase reporter read-out” (2022).

Hit rate of the full screen: of about 150,000 compounds, about 540 (0.36%) showed an effect of 50% or more. Some of the results follow.

The subject of this assay is Plasmodium falciparum. Description: Primary screen in NF54 nanoGlo assay, in single point, at 2uM, 72h; a lower Z score goes with more inhibition. In kind it is functional, Erythrocyte. The settings on record: timepoint 72 hour.
What is called % Inhibition is the drop in the measured response relative to a control, in per cent. Regarding `C[C@@H]1CN(C(=O)c2cc(F)cc(C#N)c2)CC[C@@]1(O)C1CCOCC1`, the “% Inhibition” value was -3% and the Z score came out at 0.68.
On to `CCC1CCCCN1Cc1cc(F)cc2c1OC(c1ccsc1)OC2` (centres undefined), for which the “% Inhibition” value was -5% and the Z score is listed as 0.98.
Consider `CCC(NCC1CCCS1(=O)=O)c1ccc(F)cc1F` (centres undefined), for which the “% Inhibition” value is -10% and the Z score came to 2.03.
Take `O=C1CCC(N2CCCC(O)C2)CCN1Cc1ccccc1Cl` (centres undefined): the “% Inhibition” value was -5% and the Z score worked out at 0.73.
Regarding `COc1ccc(CN2C(=O)COC[C@H]2C(=O)NCc2ccccc2OC)c(OC)c1`, the “% Inhibition” value was 0% and the Z score amounted to 0.03.
The matching figures for `COc1ccc([C@@H]2c3cccn3-c3ccccc3N2C(=O)CN(C(=O)Nc2ccc(C)cc2C)C(C)C)cc1`: -7% and 0.85.
As for `Cc1ccc2c(c1)CN(CCC(=O)NCC1CCCO1)CC(C)O2` (centres undefined), the “% Inhibition” value came to 23% and the Z score is -2.92.
The like results for `CCc1nn(C)cc1CNC(=O)NCC1CC12CCc1ccccc12` (centres undefined) were, in that order, -10% and 1.58.
For `CCc1nnsc1C(=O)NCc1ccc(N2CCCC2)cc1`, the “% Inhibition” value was 13% and the Z score is -1.41.
Consider `O=C(c1cc(C2CC2)nc2ccccc12)N1CCCCCC1`, for which the “% Inhibition” value was -5% and the Z score is given as 0.69.
`O=C(NCCC1=CCCCC1)C1CCN(c2nc3cccnc3s2)CC1`: the “% Inhibition” value came to 16% and the Z score is on record as -1.44.
Take `Cc1ccc([C@H](C)NC(=O)CNCc2sccc2C)cc1`: the “% Inhibition” value worked out at 8% and the Z score is on record as -1.06.
Regarding `O=C(NCCCN1C(=O)CCC1=O)NCC(F)(F)F`, the “% Inhibition” value is 0% and the Z score was 0.02.
As for `CCn1cnnc1CN(C)c1nc(N)nc(C)c1Cl`, the “% Inhibition” value is recorded as -6% and the Z score is 0.67.
Take `CNC(=O)c1ccnc(N(C)Cc2csc(-c3cccs3)n2)c1`: the “% Inhibition” value came out at 2% and the Z score is -0.34.
As for `CNC(=O)CCCN(C)C(=O)Cc1ccc(Br)cc1C`, the “% Inhibition” value was -14% and the Z score is listed as 1.83.
With `CC1(C)CN(c2ncnc3[nH]c(Cl)cc23)[C@H]2COC[C@@H]2O1`, the “% Inhibition” value is reported as -10% and the Z score is listed as 1.05.
For `O=C(CCc1ccc(F)c(F)c1)N[C@H]1COC[C@@H]1N1CCCCC1`, the “% Inhibition” value is on record as -7% and the Z score is 1.46.
The like results for `CC(C)CN1CCN(C(=O)c2cn3ccnc(-c4ccc(F)cc4)c3n2)CC1` were, in that order, 1% and -0.18.
Regarding `C#CCCCn1nc(C2CCN(C(=O)OC(C)(C)C)CC2)c2c1CCOC2`, the “% Inhibition” value is given as -11% and the Z score is recorded as 1.47.
The like results for `CCOCC(C)(C)NC(=O)c1ccc(CCC(C)(C)O)cc1` were, in that order, 0% and 0.04.
The matching figures for `Clc1ccc(CN2CCn3nc(CNc4cnccn4)cc3C2)o1`: -12% and 2.1.
The like results for `N#Cc1ccc(OCC(=O)c2ccc3c(c2)CCCC(=O)N3)cc1` were, in that order, -10% and 0.88.
With `CC(C)CCN(CC(=O)NC(C)C)C1CC1`, the “% Inhibition” value amounted to 4% and the Z score was -0.51.
The like results for `O=C(Nc1nc(C2CC3CCC2C3)cs1)NC1CCc2[nH]cnc2C1` (centres undefined) were, in that order, 4% and -0.35.
Consider `CN1[C@@H](c2ccc(Cl)cc2)[C@@H](C(=O)NCCc2c[nH]cn2)C[C@@]1(C)C(=O)O`, for which the “% Inhibition” value was -4% and the Z score amounted to 0.77.
The matching figures for `O=C1COC2(CCN(C(=O)NCc3ccncc3OCC(F)F)CC2)N1`: -13% and 1.98.
The like results for `CCC=C(C)C(=O)NC1CCN(S(C)(=O)=O)CC1` were, in that order, 4% and -0.5.
The like results for `CN(CCC1(O)CCCC1)C(=O)Cc1cnc2ccccn12` were, in that order, -10% and 1.97.
Turning to `CC(C)(CN1CCC([C@@H](O)CCc2ccccc2)CC1)N1CCOCC1`, the “% Inhibition” value is 0% and the Z score was 0.07.
The matching figures for `CN(Cc1cc(C[C@@H]2C[C@H](N(C)C)C2(C)C)no1)c1ccccc1`: 14% and -1.8.
The like results for `O=S(=O)(c1ccc(F)c(Cl)c1)N(Cc1cccs1)C1CCOCC1` were, in that order, -12% and 1.93.
The matching figures for `Cc1cnc(NC(=O)[C@@H]2CCCCN2C(=O)C(C)C)s1`: -10% and 1.53.
With `COc1cnc(NC(=O)N(Cc2ccoc2)C2CC2)s1`, the “% Inhibition” value was -8% and the Z score is 1.51.
The matching figures for `COc1ccc(Cl)c(NC(=O)[C@@H]2CCCCC(=O)N2)c1`: -5% and 0.68.
As to `Cc1nc(N2CCc3[nH]nc(C(C)C)c3C2)c2nc(C)oc2n1`, the “% Inhibition” value is -6% and the Z score is reported as 0.91.
With `Cc1nnc(NCC(C)(C)C2(O)CCCC2)s1`, the “% Inhibition” value was -9% and the Z score was 1.4.
The like results for `CS(=O)(=O)c1c(-c2ccccc2)n(-c2ccc(Cl)cc2)c2nc3ccccc3nc12` were, in that order, -7% and 1.07.
The like results for `Cc1cc(OC(=O)Cc2csc(-c3cccnc3)n2)cc(C)c1Cl` were, in that order, 3% and -0.48.
For the compound `CCOc1cccc2nnc(NC(=O)Nc3ccccc3C(F)(F)F)n12`, the “% Inhibition” value is -3% and the Z score was 0.56.
Take `Cc1cccnc1NCCN[C@@H](C)CN1CCCCCC1`: the “% Inhibition” value is on record as 0% and the Z score is on record as -0.05.
Consider `COc1ccc(Cc2nc(-c3cccc(-c4csc(C)n4)c3)no2)cc1Cl`, for which the “% Inhibition” value is -7% and the Z score is 0.84.
